In the supplement of paper PMC9151546:
Repeats are few or missing, and single values can be far off.

Columns and labels:
CHO-K1 [1] = experiment: relative survival (nuclei to bead ratio vs DMSO control) (% of vehicle control); higher = more surviving cells
Procedure: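 Flow-cytometric in vitro micronucleus assay (Litron MicroFlow) in CHO-K1 cells in 96-well plates, 19 concentrations (4.5-200 µM, n=1 per concentration). Without S9, cells were exposed for 24 h and sampled at 48 h. With Aroclor 1254-induced rat liver S9, cells were exposed for 3-4 h and sampled at 27-28 h. Read-outs are %MN and %hypodiploid nuclei relative to nucleated events, and relative survival as the nuclei-to-bead ratio versus the 1% DMSO vehicle control (x100).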

CHO-K1 [2] = experiment: micronucleus frequency (% of nucleated events); higher = more micronuclei (genotoxic)
CHO-K1 [3] = experiment: hypodiploid nuclei frequency (% of nucleated events); higher = more hypodiploid events (aneugenic)
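For hypodiploid nuclei frequency (% of nucleated events) in this document: hypodiploid nuclei gated on a flow cytometer with 488 nm excitation after SYTOX Green staining, cultures at 37 °C, positive controls vinblastine without S9 and cyclophosphamide with S9.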
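For micronucleus frequency (% of nucleated events) in this document: cells lysed with nuclei stained by SYTOX Green, then micronucleus-gated events counted against nucleated events by flow cytometry with 488 nm excitation.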
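For relative survival (nuclei to bead ratio vs DMSO control) in this document: Lysed-cell nuclei stained with SYTOX Green and counted against counting beads by flow cytometry at 488 nm excitation, with vinblastine (no S9) and cyclophosphamide (plus S9) as positive controls.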

ClC1=C(Cl)C2(Cl)C3C4OC4C(Cl)C3C1(Cl)C2(Cl)Cl (stereo not drawn) [Heptachlor epoxide]
Settings | hypodiploid nuclei frequency, CHO-K1 [3] [%] | micronucleus frequency, CHO-K1 [2] [%] | relative survival, CHO-K1 [1]
concentration: 4.5 (µM), S9 metabolic activation: with S9, exposure time: 3-4 hours | 0.2 | 0.9 | 116
concentration: 4.5 (µM), S9 metabolic activation: without S9, exposure time: 24 hours | 0.56 | 1.14 | 133
concentration: 5.63 (µM), S9 metabolic activation: with S9, exposure time: 3-4 hours | 0.16 | 1.14 | 120
concentration: 5.63 (µM), S9 metabolic activation: without S9, exposure time: 24 hours | 0.5 | 1.52 | 108
concentration: 7.04 (µM), S9 metabolic activation: with S9, exposure time: 3-4 hours | 0.1 | 0.92 | 123
concentration: 7.04 (µM), S9 metabolic activation: without S9, exposure time: 24 hours | 0.54 | 1.34 | 117
concentration: 8.8 (µM), S9 metabolic activation: with S9, exposure time: 3-4 hours | 0.18 | 0.84 | 99.9
concentration: 8.8 (µM), S9 metabolic activation: without S9, exposure time: 24 hours | 0.6 | 1.08 | 102
concentration: 11 (µM), S9 metabolic activation: with S9, exposure time: 3-4 hours | 0.14 | 1 | 108
concentration: 11 (µM), S9 metabolic activation: without S9, exposure time: 24 hours | 0.84 | 1.02 | 126
concentration: 13.7 (µM), S9 metabolic activation: with S9, exposure time: 3-4 hours | 0.14 | 1.04 | 94.9
concentration: 13.7 (µM), S9 metabolic activation: without S9, exposure time: 24 hours | 0.44 | 1.42 | 112
concentration: 17.2 (µM), S9 metabolic activation: with S9, exposure time: 3-4 hours | 0.22 | 1.1 | 102
concentration: 17.2 (µM), S9 metabolic activation: without S9, exposure time: 24 hours | 0.76 | 1.66 | 120
concentration: 21.5 (µM), S9 metabolic activation: with S9, exposure time: 3-4 hours | 0.14 | 1.14 | 97.3
concentration: 21.5 (µM), S9 metabolic activation: without S9, exposure time: 24 hours | 0.56 | 1.26 | 89.4
concentration: 26.8 (µM), S9 metabolic activation: with S9, exposure time: 3-4 hours | 0.04 | 0.74 | 107
concentration: 26.8 (µM), S9 metabolic activation: without S9, exposure time: 24 hours | 0.86 | 1.76 | 95.5
concentration: 33.6 (µM), S9 metabolic activation: with S9, exposure time: 3-4 hours | 0.2 | 0.82 | 103
concentration: 33.6 (µM), S9 metabolic activation: without S9, exposure time: 24 hours | 1.08 | 1.88 | 106
concentration: 41.9 (µM), S9 metabolic activation: with S9, exposure time: 3-4 hours | 0.14 | 1.08 | 92
concentration: 41.9 (µM), S9 metabolic activation: without S9, exposure time: 24 hours | 1.06 | 1.98 | 99.4
concentration: 52.4 (µM), S9 metabolic activation: with S9, exposure time: 3-4 hours | 0.14 | 2.72 | 98
concentration: 52.4 (µM), S9 metabolic activation: without S9, exposure time: 24 hours | 1.58 | 2.34 | 87
concentration: 65.5 (µM), S9 metabolic activation: with S9, exposure time: 3-4 hours | 0.2 | 1.48 | 99.7
concentration: 65.5 (µM), S9 metabolic activation: without S9, exposure time: 24 hours | 2.5 | 2.84 | 86.2
concentration: 81.9 (µM), S9 metabolic activation: with S9, exposure time: 3-4 hours | 0.22 | 1.04 | 87.3
concentration: 81.9 (µM), S9 metabolic activation: without S9, exposure time: 24 hours | 2.06 | 2.7 | 69.1
concentration: 102 (µM), S9 metabolic activation: with S9, exposure time: 3-4 hours | 0.24 | 1.52 | 90.6
concentration: 102 (µM), S9 metabolic activation: without S9, exposure time: 24 hours | 2.22 | 2.76 | 82.6
concentration: 128 (µM), S9 metabolic activation: with S9, exposure time: 3-4 hours | 0.26 | 1.26 | 84.5
concentration: 128 (µM), S9 metabolic activation: without S9, exposure time: 24 hours | 2.24 | 2.56 | 70.3
concentration: 160 (µM), S9 metabolic activation: with S9, exposure time: 3-4 hours | 0.24 | 1.34 | 80.5
concentration: 160 (µM), S9 metabolic activation: without S9, exposure time: 24 hours | 1.78 | 2.3 | 79.5
concentration: 200 (µM), S9 metabolic activation: with S9, exposure time: 3-4 hours | 0.2 | 2.08 | 76.5
concentration: 200 (µM), S9 metabolic activation: without S9, exposure time: 24 hours | 2.14 | 1.94 | 65.8

ClC1=C(Cl)C(Cl)(Cl)C(Cl)=C1Cl [Hexachlorocyclopentadiene]
Settings | hypodiploid nuclei frequency, CHO-K1 [3] [%] | micronucleus frequency, CHO-K1 [2] [%] | relative survival, CHO-K1 [1]
concentration: 4.5 (µM), S9 metabolic activation: with S9, exposure time: 3-4 hours | 0.48 | 3.1 | 58.2
concentration: 4.5 (µM), S9 metabolic activation: without S9, exposure time: 24 hours | 0.34 | 2.12 | 94.3
concentration: 5.63 (µM), S9 metabolic activation: with S9, exposure time: 3-4 hours | 0.22 | 1.94 | 68.1
concentration: 5.63 (µM), S9 metabolic activation: without S9, exposure time: 24 hours | 0.52 | 2.52 | 84.3
concentration: 7.04 (µM), S9 metabolic activation: with S9, exposure time: 3-4 hours | 0.5 | 2.82 | 64.2
concentration: 7.04 (µM), S9 metabolic activation: without S9, exposure time: 24 hours | 0.44 | 2.62 | 70.3
concentration: 8.8 (µM), S9 metabolic activation: with S9, exposure time: 3-4 hours | 0.4 | 2.6 | 62.2
concentration: 8.8 (µM), S9 metabolic activation: without S9, exposure time: 24 hours | 0.48 | 7.64 | 66
concentration: 11 (µM), S9 metabolic activation: with S9, exposure time: 3-4 hours | 0.4 | 2.6 | 82.1
concentration: 11 (µM), S9 metabolic activation: without S9, exposure time: 24 hours | 0.76 | 32.9 | 50.8
concentration: 13.7 (µM), S9 metabolic activation: with S9, exposure time: 3-4 hours | 0.4 | 2.46 | 59.2
concentration: 17.2 (µM), S9 metabolic activation: with S9, exposure time: 3-4 hours | 0.36 | 2.1 | 85.4
concentration: 21.5 (µM), S9 metabolic activation: with S9, exposure time: 3-4 hours | 0.2 | 2.18 | 95.7
concentration: 26.8 (µM), S9 metabolic activation: with S9, exposure time: 3-4 hours | 0.74 | 3.82 | 65.5
concentration: 33.6 (µM), S9 metabolic activation: with S9, exposure time: 3-4 hours | 0.74 | 5.38 | 68.5
concentration: 41.9 (µM), S9 metabolic activation: with S9, exposure time: 3-4 hours | 1.16 | 9.34 | 54.8
concentration: 52.4 (µM), S9 metabolic activation: with S9, exposure time: 3-4 hours | 1.1 | 21.6 | 40.9
concentration: 65.5 (µM), S9 metabolic activation: with S9, exposure time: 3-4 hours | – | – | 25.1
concentration: 81.9 (µM), S9 metabolic activation: without S9, exposure time: 24 hours | – | – | 0.02
concentration: 102 (µM), S9 metabolic activation: without S9, exposure time: 24 hours | – | – | 0.06
concentration: 200 (µM), S9 metabolic activation: with S9, exposure time: 3-4 hours | – | – | 0.03
concentration: 200 (µM), S9 metabolic activation: without S9, exposure time: 24 hours | – | – | 0.06

Oc1ccc(O)cc1 [Hydroquinone]
Settings | hypodiploid nuclei frequency, CHO-K1 [3] [%] | micronucleus frequency, CHO-K1 [2] [%] | relative survival, CHO-K1 [1]
concentration: 4.5 (µM), S9 metabolic activation: with S9, exposure time: 3-4 hours | 0.44 | 1.2 | 96.9
concentration: 4.5 (µM), S9 metabolic activation: without S9, exposure time: 24 hours | 0.68 | 1.64 | 101
concentration: 5.63 (µM), S9 metabolic activation: with S9, exposure time: 3-4 hours | 0.34 | 1.68 | 90.5
concentration: 5.63 (µM), S9 metabolic activation: without S9, exposure time: 24 hours | 0.74 | 1.26 | 99
concentration: 7.04 (µM), S9 metabolic activation: with S9, exposure time: 3-4 hours | 0.38 | 1.06 | 90.2
concentration: 7.04 (µM), S9 metabolic activation: without S9, exposure time: 24 hours | 0.72 | 1.5 | 90.6
concentration: 8.8 (µM), S9 metabolic activation: with S9, exposure time: 3-4 hours | 0.56 | 0.98 | 90
concentration: 8.8 (µM), S9 metabolic activation: without S9, exposure time: 24 hours | 0.6 | 1.26 | 99.4
concentration: 11 (µM), S9 metabolic activation: with S9, exposure time: 3-4 hours | 0.6 | 0.96 | 96.3
concentration: 11 (µM), S9 metabolic activation: without S9, exposure time: 24 hours | 0.84 | 1.48 | 106
concentration: 13.7 (µM), S9 metabolic activation: with S9, exposure time: 3-4 hours | 0.24 | 1.02 | 91.5
concentration: 13.7 (µM), S9 metabolic activation: without S9, exposure time: 24 hours | 1.1 | 1.74 | 83
concentration: 17.2 (µM), S9 metabolic activation: with S9, exposure time: 3-4 hours | 0.38 | 0.76 | 89.2
concentration: 17.2 (µM), S9 metabolic activation: without S9, exposure time: 24 hours | 3.1 | 2.2 | 83.2
concentration: 21.5 (µM), S9 metabolic activation: with S9, exposure time: 3-4 hours | 0.44 | 1 | 100
concentration: 21.5 (µM), S9 metabolic activation: without S9, exposure time: 24 hours | 1.56 | 1.74 | 124
concentration: 26.8 (µM), S9 metabolic activation: with S9, exposure time: 3-4 hours | 0.28 | 0.94 | 113
concentration: 26.8 (µM), S9 metabolic activation: without S9, exposure time: 24 hours | 0.86 | 2.34 | 79.2
concentration: 33.6 (µM), S9 metabolic activation: with S9, exposure time: 3-4 hours | 0.44 | 0.82 | 108
concentration: 33.6 (µM), S9 metabolic activation: without S9, exposure time: 24 hours | 1.48 | 3.5 | 75.9
concentration: 41.9 (µM), S9 metabolic activation: with S9, exposure time: 3-4 hours | 0.4 | 1.16 | 100
concentration: 41.9 (µM), S9 metabolic activation: without S9, exposure time: 24 hours | 2.24 | 3.64 | 52.8
concentration: 52.4 (µM), S9 metabolic activation: with S9, exposure time: 3-4 hours | 0.34 | 1.26 | 84.6
concentration: 52.4 (µM), S9 metabolic activation: without S9, exposure time: 24 hours | – | – | 39.1
concentration: 65.5 (µM), S9 metabolic activation: with S9, exposure time: 3-4 hours | 0.4 | 1.6 | 88.5
concentration: 65.5 (µM), S9 metabolic activation: without S9, exposure time: 24 hours | – | – | 12.1
concentration: 81.9 (µM), S9 metabolic activation: with S9, exposure time: 3-4 hours | 0.5 | 1.72 | 86.2
concentration: 81.9 (µM), S9 metabolic activation: without S9, exposure time: 24 hours | – | – | 5.13
concentration: 102 (µM), S9 metabolic activation: with S9, exposure time: 3-4 hours | 0.92 | 2 | 76.3
concentration: 102 (µM), S9 metabolic activation: without S9, exposure time: 24 hours | – | – | 0.1
concentration: 128 (µM), S9 metabolic activation: with S9, exposure time: 3-4 hours | 0.54 | 2.5 | 63.5
concentration: 128 (µM), S9 metabolic activation: without S9, exposure time: 24 hours | – | – | 0.02
concentration: 160 (µM), S9 metabolic activation: with S9, exposure time: 3-4 hours | 0.84 | 3.66 | 56.9
concentration: 160 (µM), S9 metabolic activation: without S9, exposure time: 24 hours | – | – | 0.03
concentration: 200 (µM), S9 metabolic activation: with S9, exposure time: 3-4 hours | 0.9 | 5.44 | 42
concentration: 200 (µM), S9 metabolic activation: without S9, exposure time: 24 hours | – | – | 0.04
